For 41 compounds, inhibition and IC50 results are on record in patent US20180015075A1, “METHODS AND COMPOSITIONS FOR TREATMENT OF VENOUS MALFORMATION” (Children's Hospital Medical Center, priority 2016, published 2018).

Where a name gives a salt, the structure may show the parent alone. Starred links: 1 amine or outer side, 2 acyl side, 3 side chain; linkers in the order of their positions; H or OH if unused. Positions of bridges follow the written chain, without caps; N, C: chain ends. Non-standard residues stand in square brackets, D forms with d. Residues, ends and D or L forms follow the SMILES beside them. Chains are numbered I, II in the order given. Actinocin(9to1) = Cc1c2oc3c(C)ccc(C(=O)[*:1])c3nc-2c(C(=O)[*:2])c(N)c1=O; NMeV = CN[C@H](C(=O)O)C(C)C; Sar = CNCC(=O)O

One assay relates to HUVEC (non-transfected). The assay can be described thus: cells. To be noted: Homo sapiens, read-out: Average proliferation Inhibition rate (%) HUVEC.
As for `C[C@]12CC[C@H](O)CC1=CC[C@@H]1[C@@H]2CC[C@]2(C)C(c3cccnc3)=CC[C@@H]12` [Abiraterone], the inhibition at 20 µM was -6.5%.
Same read-out and setting: then `CN(C)C/C=C/C(=O)Nc1cc2c(Nc3ccc(F)c(Cl)c3)ncnc2cc1O[C@H]1CCOC1` [Afatinib], with 20%; and `Oc1ncnc2[nH]ncc12` [Allopurinol], with 1.79%.
Same read-out and setting: the value for `CN(C)c1nc(N(C)C)nc(N(C)C)n1` [Altretamine] was 2.67%; that for `NCCCNCCSP(=O)(O)O` [Amifostine] was -8.91%; that for `NCC(=O)CCC(=O)O` [Aminolevulinic acid hydrochloride] was 3.76%.
Same read-out and setting: then `CC(C)(C#N)c1cc(Cn2cncn2)cc(C(C)(C)C#N)c1` [Anastrozole], with 4.23%; and `Nc1ncn([C@@H]2O[C@H](CO)[C@@H](O)[C@H]2O)c(=O)n1` [Azacitidine], with 44.3%; and `O=C(/C=C/c1cccc(S(=O)(=O)Nc2ccccc2)c1)NO` [Belinostat], with 79.4%.
As for `CC(C)C[C@H](NC(=O)[C@H](Cc1ccccc1)NC(=O)c1cnccn1)B(O)O` [Bortezomib], the inhibition at 20 µM turned out to be 81%.
As for `CS(=O)(=O)OCCCCOS(C)(=O)=O` [Busulfan], the inhibition at 20 µM was determined as 1.68%.
On the same count and under the same terms, the value for `CO[C@H]1C(=O)[C@]2(C)[C@@H](OC)C[C@H]3OC[C@@]3(OC(C)=O)[C@H]2[C@H](OC(=O)c2ccccc2)[C@]2(O)C[C@H](OC(=O)[C@H](O)[C@@H](NC(=O)OC(C)(C)C)c3ccccc3)C(C)=C1C2(C)C` [Cabazitaxel] was 40.1%; that for `COc1cc2nccc(Oc3ccc(NC(=O)C4(C(=O)Nc5ccc(F)cc5)CC4)cc3)c2cc1OC` [Cabozantinib] was 32%; that for `CCCCCOC(=O)Nc1nc(=O)n([C@@H]2O[C@H](C)[C@@H](O)[C@H]2O)cc1F` [Capecitabine] was 0.47%.
For the compound `CC(C)C[C@H](NC(=O)[C@H](CCc1ccccc1)NC(=O)CN1CCOCC1)C(=O)N[C@@H](Cc1ccccc1)C(=O)N[C@@H](CC(C)C)C(=O)[C@@]1(C)CO1` [Carfilzomib], the inhibition at 20 µM turned out to be 69.7%.
On the same count and under the same terms, the value for `O=NN(CCCl)C(=O)NCCCl` [Carmustine] was 11.2%; that for `Cc1ccc(-c2cc(C(F)(F)F)nn2-c2ccc(S(N)(=O)=O)cc2)cc1` [Celecoxib] was 0.37%; that for `Cc1cc(Nc2ncc(Cl)c(Nc3ccccc3S(=O)(=O)C(C)C)n2)c(OC(C)C)cc1C1CCNCC1` [Ceritinib] was 12.4%.
The same measure, in the same setting: the value for `O=C(O)CCCc1ccc(N(CCCl)CCCl)cc1` [Chlorambucil] was 22%.
Still for that read-out and setting: the value for `Nc1nc(Cl)nc2c1ncn2[C@H]1C[C@H](O)[C@@H](CO)O1` [Cladribine] was 57%; that for `Nc1nc(Cl)nc2c1ncn2[C@@H]1O[C@H](CO)[C@@H](O)[C@@H]1F` [Clofarabine] was 55.8%; that for `C[C@@H](Oc1cc(-c2cnn(C3CCNCC3)c2)cnc1N)c1c(Cl)ccc(F)c1Cl` [Crizotinib] was 63.8%.
For the compound `CN(C)/N=N/c1[nH]cnc1C(N)=O` [Dacarbazine], the inhibition at 20 µM was determined as 1.88%.
Same read-out and setting: then `Cc1c2oc3c(C)ccc(C(=O)N[C@@H]4C(=O)N[C@H](C(C)C)C(=O)N5CCC[C@H]5C(=O)N(C)CC(=O)N(C)[C@@H](C(C)C)C(=O)O[C@@H]4C)c3nc-2c(C(=O)N[C@@H]2C(=O)N[C@H](C(C)C)C(=O)N3CCC[C@H]3C(=O)N(C)CC(=O)N(C)[C@@H](C(C)C)C(=O)O[C@@H]2C)c(N)c1=O` [Dactinomycin] (I: T[dV]P[Sar][NMeV] / II: T[dV]P[Sar][NMeV]; ester I:1-I:C, II:1-II:C; linker I:N-II:N via Actinocin(9to1)), with 67%; and `Cc1nc(Nc2ncc(C(=O)Nc3c(C)cccc3Cl)s2)cc(N2CCN(CCO)CC2)n1` [Dasatinib, N-(2-Chloro-6-methylphenyl)-2-[[6-[4-(2-hydroxyethyl)-1-piperazinyl]-2-methyl-4-pyrimidinyl]amino]-5-thiazolecarboxamide], with 18.6%; and `COc1cccc2c1C(=O)c1c(O)c3c(c(O)c1C2=O)C[C@@](O)(C(C)=O)C[C@@H]3O[C@H]1C[C@H](N)[C@H](O)[C@H](C)O1` [Daunorubicin hydrochloride], with 76%.
Still for that read-out and setting: then `Nc1ncn([C@H]2C[C@H](O)[C@@H](CO)O2)c(=O)n1` [Decitabine], with 3.11%.
Consider `C[C@@H](CN1CC(=O)NC(=O)C1)N1CC(=O)NC(=O)C1` [Dexrazoxane], for which the inhibition at 20 µM was found to be 13.4%.
On the same count and under the same terms, the value for `CC(=O)O[C@@]12CO[C@@H]1C[C@H](O)[C@@]1(C)C(=O)[C@H](O)C3=C(C)[C@@H](OC(=O)[C@H](O)[C@@H](NC(=O)OC(C)(C)C)c4ccccc4)C[C@@](O)([C@@H](OC(=O)c4ccccc4)[C@H]21)C3(C)C` [Docetaxel] was 38.8%; that for `COc1cccc2c1C(=O)c1c(O)c3c(c(O)c1C2=O)C[C@@](O)(C(=O)CO)C[C@@H]3O[C@H]1C[C@H](N)[C@H](O)[C@H](C)O1` [Doxorubicin hydrochloride] was 73.2%.
On the same count and under the same terms, then `CNC(=O)c1ccc(N2C(=S)N(c3ccc(C#N)c(C(F)(F)F)c3)C(=O)C2(C)C)cc1F` [Enzalutamide], with 82.9%; and `COc1cccc2c1C(=O)c1c(O)c3c(c(O)c1C2=O)C[C@@](O)(C(=O)CO)C[C@@H]3O[C@H]1C[C@H](N)[C@@H](O)[C@H](C)O1` [Epirubicin hydrochloride], with 74.4%.
Still for that read-out and setting: the value for `C#Cc1cccc(Nc2ncnc3cc(OCCOC)c(OCCOC)cc23)c1` [Erlotinib hydrochloride] was 35.3%; that for `C[C@]12CC[C@@H]3c4ccc(OC(=O)N(CCCl)CCCl)cc4CC[C@H]3[C@@H]1CC[C@@H]2OP(=O)(O)O` [Estramustine phosphate sodium] was -4.58%; that for `COc1cc([C@@H]2c3cc4c(cc3[C@@H](O[C@@H]3O[C@@H]5CO[C@@H](C)O[C@H]5[C@H](O)[C@H]3O)[C@H]3COC(=O)[C@H]23)OCO4)cc(OC)c1O` [Etoposide] was 48%.
As to `CO[C@H]1C[C@@H]2CC[C@@H](C)[C@@](O)(O2)C(=O)C(=O)N2CCCC[C@H]2C(=O)O[C@H]([C@H](C)C[C@@H]2CC[C@@H](OCCO)[C@H](OC)C2)CC(=O)[C@H](C)/C=C(\C)[C@@H](O)[C@@H](OC)C(=O)[C@H](C)C[C@H](C)/C=C/C=C/C=C/1C` [Everolimus, 42-O-(2-Hydroxyethyl)-rapamycin], the inhibition at 20 µM is 39.8%.
On the same count and under the same terms, the value for `C=C1C[C@@H]2[C@H](CC[C@]3(C)C(=O)CC[C@@H]23)[C@@]2(C)C=CC(=O)C=C12` [Exemestane] was 5.08%; that for `O=c1[nH]c(=O)n([C@H]2C[C@H](O)[C@@H](CO)O2)cc1F` [Floxuridine] was 23.2%; that for `Nc1nc(F)nc2c1ncn2[C@@H]1O[C@H](COP(=O)(O)O)[C@@H](O)[C@@H]1O` [Fludarabine phosphate] was 0.14%.
The same measure, in the same setting: then `O=c1[nH]cc(F)c(=O)[nH]1` [Fluorouracil], with 20.5%; and `C[C@]12CC[C@@H]3c4ccc(O)cc4C[C@@H](CCCCCCCCC[S+]([O-])CCCC(F)(F)C(F)(F)F)[C@H]3[C@@H]1CC[C@@H]2O` (stereo partly shown) [Fulvestrant], with -4.95%.

Still in this assay, the particulars now being: Homo sapiens, read-out: IC50 HUVEC.
In the case of `Cc1cc(Nc2ncc(Cl)c(Nc3ccccc3S(=O)(=O)C(C)C)n2)c(OC(C)C)cc1C1CCNCC1` [Ceritinib], the IC50 was 8.13 ± 2.65 µM.
The same measure, in the same setting: then `CO[C@H]1C[C@@H]2CC[C@@H](C)[C@@](O)(O2)C(=O)C(=O)N2CCCC[C@H]2C(=O)O[C@H]([C@H](C)C[C@@H]2CC[C@@H](OCCO)[C@H](OC)C2)CC(=O)[C@H](C)/C=C(\C)[C@@H](O)[C@@H](OC)C(=O)[C@H](C)C[C@H](C)/C=C/C=C/C=C/1C` [Everolimus, 42-O-(2-Hydroxyethyl)-rapamycin], with less than 0.03 µM.

One may read the IC50 as the concentration that inhibits the measured activity by half.
